From US20110159513A1 (MERRIMACK PHARMACEUTICALS, published 2011)

Target: ErbB3 on tumour cells (NCI-ADRr, OVCAR8, OVCAR8-HER2) (UniProt P21860 20-1342, limits assumed)
Experiment: cell-based or functional assay

B1: bispecific antibody H3×B1D2 (bispecific antibody)
chain: QVQLQESGGGLVKPGGSLRLSCAASGFTFSSYWMSWVRQAPGKGLEWVANINRDGSASYYVDSVKGRFTISRDDAKNSLYLQMNSLRAEDTAVYYCARDRGVGYFDLWGRGTLVTVSSASTGGGGSGGGGSGGGGSQSALTQPASVSGSPGQSITISCTGTSSDVGGYNFVSWYQQHPGKAPKLMIYDVSDRPSGVSDRFSGSKSGNTASLIISGLQADDEADYYCSSYGSSSTHVIFGGGTKVTVLGAAS[about 600 residues skipped]AAALQVQLVQSGAEVKKPGESLKISCKGSGYSFTSYWIAWVRQMPGKGLEYMGLIYPGDSDTKYSPSFQGQVTISVDKSVSTAYLQWSSLKPSDSAVYFCARHDVGYCTDRTCAKWPEWLGVWGQGTLVTVSSGGGGSSGGGSGGGGSQSVLTQPPSVSAAPGQKVTISCSGSSSNIGNNYVSWYQQLPGTAPKLLIYDHTNRPAGVPDRFSGSKSGTSASLAISGFRSEDEADYYCASWDYTLSGWVFGGGTKLTVLG
- IC50 (printed as DR50data): inhibition of HRG-induced pErbB3 in OVCAR8 cells, ELISA, 5 nM HRG, 10 min lysis: 1.7e-09 M
